Laboratory results: PMC6451091
Some of the results follow. For part of these data: At the low end of the ranking the order means little. For part of these data: The protein was read in a cell extract, so binding may be indirect.

molecular target: PU.1 (IVT) (UniProt P17947); assay: protein-binding microarray (PBM); details: 20 mM HEPES pH 7.9, 100 mM NaCl, 1 mM DTT, 0.2 mg/mL BSA, 0.02% Triton X-100, 2% milk, 0.4 mg/mL salmon testes DNA; 1 h; temperature not stated; high values mean tight binding; double strand, one strand shown; sequences stand for … in GCCTAGCAC…GTGCTAGGTCTTGATTCGCTTGACGCTGCTG

Row | Sequence | binding signal [z-score]
1 | GACAGGAGGAAGTGGAACTC | 4.7
2 | ACAGGAAGGAAGTGTGGGGA | 2.25
3 | TGAAAGAGAAAGTGCAACCA | -0.224
4 | AGAATAGGGAAGTGACTTAA | 7.27
5 | GTTAAAGGGAAGTCCCCAAA | 3.13
6 | GAAATCAGGAAGTCCCATAG | 4.8
7 | AGCAGGAGGAAGTGGGTGGA | 3.97
8 | AAAAAAAGGAACTGACTAGA | 4.95
9 | GAGGAAGGGAAGTGAGACAT | 2.65
10 | TTAAAGAGGAAGTGCAACCA | 7.02
11 | GAGAAGAGGAAATGAGTGTG | 2.61
12 | GAAAAGAGGAAGTTGGGGAA | 8.94
13 | AAGAAGAGGAAGTGGTTTGT | 7.35
14 | GAATAGAGGAAGTGGGGCCG | 5.54
15 | AAAAAAAGGAAATGAAAATG | 3.71
16 | CGAAAGGGGAAGTGCTAGAC | 7.44
17 | CGGAAGAGGAAGTGGTTGCG | 6.73
18 | GAAAATGGGAAGTGACCGCA | 5.62
19 | AGAAACAGGAAGTGGGTAAA | 7.14
20 | AGAAAGAGGAACTACAAGGC | 6.87

Row | Sequence | binding signal [z-score]
21 | TGCCGGAGGAAGTGGCATGC | 2.27
22 | TCACAGAGGAAGTGATAGTA | 3.5
23 | GAAATGAGGAAATACTGTGA | 4.88
24 | GGGTTGGGGAAGTGGGGGTA | 2.88
25 | GCAATGGGGAAGTGGTTTGC | 5.83
26 | TAAAAGAGGAAGTGCATTCA | 8.5
27 | AAAAAAAGGAAATGGATCCT | 3.39
28 | GTAAAGAGGAAGTCAGACTG | 6.96
29 | AAAAAAAGGAACTGGCTAAA | 4.07
30 | GAAAAGAGGAACTGCATGGG | 6.95
31 | AAGAAGAGGAACTGGCAAGT | 4.41
32 | TTGGAAAGGAAGTACTGTGG | 2.39
33 | GAAGACAGGAAGTCCCATAG | 2.73
34 | GGAAACAGGAAGTGAGATAA | 6.91
35 | TGAAGAGGGAAGTGAGAGAG | 3.37
36 | GGAAAAAGGAAGTCCTGTCA | 4.96
37 | CAAAGAGGGAAGTGGATGCT | 4.55
38 | TTGAAAAGGAAGTGGGCGAG | 2.66
39 | TTTATGAGGAAGTGGAGGCA | 5.49

molecular target: PU.1 (endogenous, THP-1 nuclear extract) (UniProt P17947); assay: nuclear extract protein-binding microarray (nextPBM); details: 20 mM HEPES pH 7.9, 100 mM NaCl, 1 mM DTT, 0.2 mg/mL BSA, 0.02% Triton X-100, 2% milk, 0.4 mg/mL salmon testes DNA; 1 h; temperature not stated; high values mean tight binding; double strand, one strand shown; sequences stand for … in GCCTAGCAC…GTGCTAGGTCTTGATTCGCTTGACGCTGCTG

Row | Sequence | binding signal [z-score]
40 | GACAGGAGGAAGTGGAACTC | 4.85
41 | ACAGGAAGGAAGTGTGGGGA | 1.98
42 | TGAAAGAGAAAGTGCAACCA | -0.4
43 | AGAATAGGGAAGTGACTTAA | 7.16
44 | GTTAAAGGGAAGTCCCCAAA | 3.24
45 | GAAATCAGGAAGTCCCATAG | 5.66
46 | AGCAGGAGGAAGTGGGTGGA | 4.17
47 | AAAAAAAGGAACTGACTAGA | 4.5
48 | GAGGAAGGGAAGTGAGACAT | 2.67
49 | TTAAAGAGGAAGTGCAACCA | 7.02
50 | GAGAAGAGGAAATGAGTGTG | 2.77
51 | GAAAAGAGGAAGTTGGGGAA | 7.4
52 | AAGAAGAGGAAGTGGTTTGT | 7.06
53 | GAATAGAGGAAGTGGGGCCG | 6.65
54 | AAAAAAAGGAAATGAAAATG | 2.92
55 | CGAAAGGGGAAGTGCTAGAC | 6.94
56 | CGGAAGAGGAAGTGGTTGCG | 6.74
57 | GAAAATGGGAAGTGACCGCA | 6.03
58 | AGAAACAGGAAGTGGGTAAA | 7.08
59 | AGAAAGAGGAACTACAAGGC | 6.75

Row | Sequence | binding signal [z-score]
60 | TGCCGGAGGAAGTGGCATGC | 2.63
61 | TCACAGAGGAAGTGATAGTA | 3.76
62 | GAAATGAGGAAATACTGTGA | 4.74
63 | GGGTTGGGGAAGTGGGGGTA | 2.93
64 | GCAATGGGGAAGTGGTTTGC | 6.32
65 | TAAAAGAGGAAGTGCATTCA | 7.49
66 | AAAAAAAGGAAATGGATCCT | 2.79
67 | GTAAAGAGGAAGTCAGACTG | 6.98
68 | AAAAAAAGGAACTGGCTAAA | 3.95
69 | GAAAAGAGGAACTGCATGGG | 6.9
70 | AAGAAGAGGAACTGGCAAGT | 4.49
71 | TTGGAAAGGAAGTACTGTGG | 1.75
72 | GAAGACAGGAAGTCCCATAG | 2.6
73 | GGAAACAGGAAGTGAGATAA | 7.04
74 | TGAAGAGGGAAGTGAGAGAG | 3.47
75 | GGAAAAAGGAAGTCCTGTCA | 5.19
76 | CAAAGAGGGAAGTGGATGCT | 4.93
77 | TTGAAAAGGAAGTGGGCGAG | 2.46
78 | TTTATGAGGAAGTGGAGGCA | 5.94
